These results are taken from ChEMBL document CHEMBL4888484, “Replenishing the malaria drug discovery pipeline: Screening and hit evaluation of the MMV Hit Generation Library 1 (HGL1) against asexual blood stage Plasmodium falciparum ,using a nano luciferase reporter read-out” (2022).

In all, about 150,000 compounds went through this assay and about 540 (0.36%) showed an effect of 50% or more. Some of the results follow.

This experiment has as its system Plasmodium falciparum. Briefly: Primary screen in NF54 nanoGlo assay, in single point, at 2uM, 72h; a lower Z score goes with more inhibition. The format is functional, Erythrocyte. To be noted: timepoint 72 hour.
For `O=C(c1conc1C1CC1)N1CCCC2(CCCC2)C1`, the “% Inhibition” value was 1% and the Z score was -0.17.

As for `CCS(=O)(=O)Nc1cc(C(=O)NCCc2cnccn2)c2c(c1)nc(-c1ccccc1)n2C`, the “% Inhibition” value came to 8% and the Z score is listed as -1.16.

`Cc1ccc(CC(=O)N2CCc3[nH]nc(C(=O)NCCCc4ccccc4)c3C2)cc1`: the “% Inhibition” value is -9% and the Z score is listed as 1.41.

Regarding `CCN(Cc1noc(C2CCC2)n1)C(=O)[C@@H](c1cccnc1)N1CCCC1`, the “% Inhibition” value is -6% and the Z score was determined as 0.7.

On to `CCc1cccc(C)c1NC(=O)[C@H]1CCCN(S(=O)(=O)c2ccc3ccccc3c2)C1`, for which the “% Inhibition” value is recorded as -5% and the Z score worked out at 0.82.

`CCc1nc(CC(=O)N(CC#N)C2CC2)cs1`: the “% Inhibition” value is recorded as -6% and the Z score was 0.83.

For `CCc1cc(-c2nc(CCOC)nn2-c2ccc3nc(C)sc3c2)on1`, the “% Inhibition” value is on record as -6% and the Z score is on record as 1.05.

For the molecule `Cc1ccnc2nc(C(=O)N(CC3CC3)CC(F)(F)F)nn12`, the “% Inhibition” value worked out at 37% and the Z score is -1.11.

With `Cc1cc(OC[C@@H](O)CNC(C)(C)CC(C)(C)C)cc(C)c1Cl`, the “% Inhibition” value is 51% and the Z score was -6.83.

Turning to `O=c1cc(N[C@@H](c2cccc(C(F)(F)F)c2)C2CC2)nc2ccccn12`, the “% Inhibition” value worked out at 17% and the Z score is listed as -2.15.

Regarding `Cc1cc(CNC2CC(C)(c3ccccc3)C2)on1` (configuration not stated), the “% Inhibition” value is given as -12% and the Z score amounted to 1.65.

As to `COC(=O)[C@@H]1Cc2nc[nH]c2CN1Cc1cnc(-c2ccccc2C)s1`, the “% Inhibition” value is recorded as 0% and the Z score turned out to be 0.03.

For the molecule `CC(C)c1nn(C)cc1C(=O)NC[C@]1(O)CCCC1(C)C`, the “% Inhibition” value came to 34% and the Z score is on record as -3.88.

`CCCNC(=O)c1n[nH]c2c1CCc1cc(OC)ccc1-2`: the “% Inhibition” value was -10% and the Z score is 1.74.

As to `Cc1cc(C(=O)N2CC3(CCC3)[C@H]2c2cccnc2)ns1`, the “% Inhibition” value is given as -4% and the Z score came to 0.69.

Turning to `COc1ccc(CNCc2cc(F)ccc2C)cc1OC[C@@H](O)CN1CCCCC1`, the “% Inhibition” value came to 9% and the Z score is on record as -1.81.

As for `COc1ccc(C(=O)N2CCCCCCNC(=O)[C@@H]3CCC[C@@H]32)cn1`, the “% Inhibition” value is reported as -5% and the Z score amounted to 0.62.

As for `O=S(=O)(NCc1ccccc1)Nc1ccc(-c2cn[nH]c2)cc1`, the “% Inhibition” value is listed as -2% and the Z score is on record as 0.32.

`COC(=O)C[C@H](c1cc(OC)c2c(c1)OCCO2)c1c(O)n[nH]c1Cc1ccc(OC)cc1`: the “% Inhibition” value is reported as -9% and the Z score was 1.14.

With `O=c1c(C(F)(F)F)cccn1Cc1ccc2ccccc2n1`, the “% Inhibition” value was -7% and the Z score came to 0.8.

For the molecule `COc1ccc(C2(C)NC(=O)N(CC(=O)N(CC(C)C)C3CCS(=O)(=O)C3)C2=O)cc1OC` (configuration not stated), the “% Inhibition” value is recorded as -11% and the Z score is given as 1.12.

Take `CC(C)S(=O)(=O)NCCOc1ccc(C(C)(C)C)cc1`: the “% Inhibition” value stood at 1% and the Z score was -0.05.

With `O=C(Nc1ncccc1O)c1ccc2[nH]cnc2c1`, the “% Inhibition” value is given as -14% and the Z score came to 2.69.

Consider `COCCN1CCN(CC(=O)N2CCC[C@H]2c2ccsc2)CC1`, for which the “% Inhibition” value is given as -1% and the Z score is 0.13.

For `Nc1c2c(-c3ccc(F)cc3)nc(N3CCc4ccccc4C3)nc2nn1-c1ccccc1`, the “% Inhibition” value was 6% and the Z score was -1.03.

As to `O=C(c1ccccc1C(F)(F)F)N1CC(Oc2cccnc2)C1`, the “% Inhibition” value is on record as -10% and the Z score was found to be 1.9.

As to `c1ccc(-c2noc(-c3cc4n(n3)C[C@@H](c3ccccc3)OC4)n2)cc1`, the “% Inhibition” value is -17% and the Z score is 1.95.

Consider `NC(=O)CC[C@H]1NC(=O)[C@H](c2ccccc2)NC1=O`, for which the “% Inhibition” value is reported as -11% and the Z score is on record as 1.31.

Consider `CCCCCc1nnc(NC(=O)N2CCN(C(=O)c3nc[nH]n3)CC2)s1`, for which the “% Inhibition” value is reported as -3% and the Z score is given as 0.44.

As to `O=C(NC[C@H]1CCCO1)[C@H]1OCC[C@H]1c1ccccc1`, the “% Inhibition” value was -8% and the Z score was found to be 1.12.

With `CC(C)(C)[C@H]1CCc2c(sc(NC(=O)c3cc(-c4ccccc4)nc4ccccc34)c2C#N)C1`, the “% Inhibition” value was 13% and the Z score is given as -1.58.

Take `Cc1nc(N2CCOCC2)cc(N2CCN(C(=O)c3cccc(F)c3)CC2)n1`: the “% Inhibition” value is listed as -2% and the Z score is given as 0.26.

As for `CN1C(=O)NC2(CCN(C(=O)Nc3cccc(OC(F)F)c3)CC2)C1=O`, the “% Inhibition” value was 3% and the Z score is -0.48.

Regarding `COc1cc(OC)cc(C(=O)Nn2cc(C(=O)Nc3cnc4ccccc4c3)c3ccccc3c2=O)c1`, the “% Inhibition” value is -3% and the Z score is 0.63.

For the molecule `CCC(=O)N(Cc1ccc(F)cc1)Cc1c(-c2cccc(C)c2)noc1N1CCOCC1`, the “% Inhibition” value was -17% and the Z score worked out at 1.62.

Regarding `CC1C(C(F)(F)F)CCCN1C(=O)c1ccc2nncn2c1` (configuration not stated), the “% Inhibition” value is listed as -4% and the Z score was determined as 0.53.

For `Cc1cc(C)c2[nH]c(C(=O)N3CCC[C@H]3CN3CCCC3)c(C)c2c1`, the “% Inhibition” value turned out to be 0% and the Z score was 0.01.

Take `CN(C)S(=O)(=O)c1ccc(NS(C)(=O)=O)cc1F`: the “% Inhibition” value was -8% and the Z score came to 1.42.

Consider `c1ccc(CNc2nc(-c3cccnc3)ns2)cc1`, for which the “% Inhibition” value was -10% and the Z score was 0.94.

As to `COc1cccc(-c2ccc(N3CCN(C(=O)CN(CCN4CCOCC4)C(=O)CC(C)C)CC3)nn2)c1`, the “% Inhibition” value was -18% and the Z score came out at 2.6.

`O=C(Nc1ccc(N2CCCC2=O)cc1)N1CCOC[C@@H](O)C1`: the “% Inhibition” value is recorded as 1% and the Z score is on record as -0.26.
